Laboratory results published in the supplement of paper PMC10126150.
Values marked as one replicate rest on one cluster of the flow cell; about a third of the high ones do not repeat.

Tested on: ATP
Experiment: switch fluorescence ratio, 500 uM ATP over buffer (Cy3 cluster intensity, sum of 5 cycles each) (fold (ratio)); higher = stronger signal-on switching upon ATP binding; sequences stand for … in TCGTCGGCAGCGTCAGATGTGTATAAGAGACAGTTTTTTTTTTTTTTTTTTTTTTTTT…TC
Settings: aptamer strand: ATP DNA aptamer (quencher-CACCTGGGGGAGTATTGCGGAGGAAGG + anchor), 100 nM annealed; ATP concentration: 500 uM; one replicate
In short: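 After annealing to 100 nM quencher-labelled ATP aptamer, Cy3-labelled switching-strand clusters on a modified Illumina MiSeq flow-cell were imaged in selection buffer. A second image followed after 15 min with 500 uM ATP at 22 °C, and five such buffer/ATP cycles were done, each separated by NaOH stripping and re-annealing. The fluorescence ratio, averaged per switch-domain sequence, is summed target-cycle over summed buffer-cycle Cy3 intensity per cluster, with clusters outside 100-1000 RFU excluded.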
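Note: ATP exposure 15 min at 22 °C before imaging.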

Row | Sequence | switch fluorescence ratio
1 | ACGGAATACG | 3.61
2 | CCCTCATTTA | 0.978
3 | ACATGCGCAG | 1.02
4 | ACGACGATAA | 2.54
5 | CGGCTCCAC | 1.1
6 | CATTTTTGG | 0.969
7 | GTATCAATCT | 1.01
8 | ATTTGTTTCC | 1.04
9 | ATTTCTCGTT | 0.978
10 | GTAATTCGAC | 1.11
11 | GGGGTATGT | 1.01
12 | GCTACTGTAT | 1.15
13 | TGGAGATAGC | 1.07
14 | CGGGACGCTT | 1
15 | GGAGGTATTT | 0.994
16 | GGGACGATTC | 0.992
17 | GGAATATTTG | 1
18 | AATTGCAGGC | 1.1
19 | AGTGGTGTG | 1
20 | ACCCGGACCC | 1.07
21 | TAACATGG | 0.973
22 | CACTTCTTCC | 2.05
23 | CTCATCTGTT | 1.06

Row | Sequence | switch fluorescence ratio
24 | CGCCCGTAGC | 1.31
25 | GATGCTATTG | 1.03
26 | GCGTAAGAAG | 1.03
27 | TGTGTAAACA | 1.04
28 | TCTAGGACAG | 1.03
29 | TCCATAGTTT | 1.05
30 | AGAAGGCGCA | 0.996
31 | GGAAGAAGAC | 1.01
32 | AGAATTCTTG | 1
33 | ACCAGTCCTT | 1.01
34 | GGGTTGGC | 0.899
35 | TAATAGTCT | 0.985
36 | GGGTGGATCC | 1.03
37 | AAAACCGTTG | 1
38 | AAGCGCATCT | 1.01
39 | TTGGCTCTTC | 0.994
40 | CCGTCGGCGG | 1.04
41 | CGTTCGACGG | 0.971
42 | GGTCCGAGCG | 1.1
43 | ATCACGAAAG | 1.01
44 | CTTTATACA | 0.982
45 | CTCGTTAAAC | 1.19
46 | CCGAGTATTC | 2.07

Row | Sequence | switch fluorescence ratio
47 | CCGTCATTAG | 4.01
48 | ATTGCCCATA | 1
49 | CGAGTGGAAC | 1.04
50 | TCTAGTGTT | 0.989
51 | ATCTGGTAGC | 0.952
52 | AATCGGGGGC | 0.998
53 | AATGGGCTGT | 0.979
54 | TTAGTTTGAT | 0.985
55 | GACCCGGGAT | 1.05
56 | ACGGGGTGCT | 1.03
57 | TCGGGCTCTC | 0.996
58 | GCACCCCAGC | 1.13
59 | GATATTGGGT | 1.04
60 | TTCAAAGTAG | 1.04
61 | CGCCCATAGT | 1.09
62 | CCAGTTCACC | 1.05
63 | ATCCAGGGTG | 2.86
64 | TGCCGCAGCC | 2.15
65 | GGACAGTTTT | 1
66 | TCTTTTTCAG | 1.18
67 | GATACGTCGG | 0.998
68 | TGGAGTTGCG | 1.01
69 | CCTGATTTTA | 0.979

Row | Sequence | switch fluorescence ratio
70 | TCAATCCATA | 1.01
71 | GTTTTCAGCT | 0.963
72 | ATGTAGCGG | 1.02
73 | CGATGTGATT | 1.05
74 | CTTTCGAAA | 1.06
75 | GGGGCTTACA | 0.978
76 | CCAGGGCAAT | 6.29
77 | ACGGAGCCTC | 2.91
78 | TGTAAGACAC | 1.04
79 | TCGCCGCTCT | 1.06
80 | AGACATTCTC | 1.07
81 | TGGATTTGAA | 0.968
82 | TGTCCAACTT | 1.05
83 | CCAACCGGTA | 1.04
84 | TACGGCAAAA | 1.31
85 | GATGGTCAG | 0.969
86 | GCAATACAAG | 3.75
87 | TCGCTGGATC | 0.97
88 | AAAGGTTGAG | 1
89 | TTGGCGGCAT | 0.967
90 | TTCAACTTAA | 1.04
91 | GACATTCATA | 0.996
92 | AGGTTGGAAA | 0.961

Row | Sequence | switch fluorescence ratio
93 | TGTGCAATGG | 0.942
94 | CGGATTCGCG | 1.02
95 | GCGTAATCTG | 0.995
96 | TCGGCGTTTG | 0.993
97 | ACCGGGGATG | 1.13
98 | ACTGAGGTTC | 1.04
99 | ACTTCAAGAT | 1.05
100 | AGAGTTACAC | 1.14
101 | ACCGTCCCGG | 1.12
102 | CACAAATCAC | 1.05
103 | ATTGGTTCGG | 0.95
104 | TCGTGTGCCC | 0.971
105 | CTTCCATTTA | 0.994
106 | AACTTGTCGC | 1.06
107 | AGCCTACGAC | 1.45
108 | CAATAGGTTG | 0.994
109 | CAGTGGTTGA | 0.975
110 | GCTTTTTAAT | 1.09
111 | AGGGCTCTGG | 1.04
112 | TGACGACTAG | 1.06
113 | TCATTGCAGA | 1.01
114 | TACAAAGTTT | 0.97
115 | TTTGCTTGCG | 0.996

Row | Sequence | switch fluorescence ratio
116 | GAGATCGATG | 0.954
117 | ACACAAGTTG | 0.998
118 | GCGCACTTTA | 1.02
119 | GCTATTCGTG | 0.984
120 | ATGCGAGTTT | 0.949
121 | AGAAGTTCAA | 1.02
122 | TGGTACGTCG | 0.938
123 | AAAAGGCGGC | 0.967
124 | TATGTGATGC | 1.04
125 | CGTCATTTTT | 1
126 | CCTGCTGGGT | 1.01
127 | ATGAGGAGCA | 0.963
128 | ATCAGTGCGT | 1.02
129 | TTACCCAAAG | 1.03
130 | GTGGTCTTCG | 0.994
131 | ACAGGCCTCC | 1.1
132 | TGTTGGTAGC | 1.01
133 | GGCTATGGAG | 0.998
134 | TTCCCAGTCA | 1.02
135 | CTACCTGCTC | 1.23
136 | GAATTTCGTG | 1.01
137 | AGACAGCGAC | 1.09
138 | CTTTATCGTG | 0.98

Row | Sequence | switch fluorescence ratio
139 | GTATAACAAC | 1.02
140 | AATCAGGGGA | 1.41
141 | TAACACGACA | 1.19
142 | GAAGCAACGT | 1.07
143 | TTATCCGCA | 3.59
144 | CTCACGCGTG | 0.99
145 | TACCTAGCCC | 1.09
146 | TTCAGAGCTA | 1.03
147 | CACTTTGTGG | 1.01
148 | GTGCTAGCGT | 0.974
149 | TTCGGTTGAC | 1.44
150 | ACGGCTCCAA | 1.02
151 | CTGGGCTAAG | 1.01
152 | GGCTGGTTAC | 1.04
153 | TTCCCGGGG | 1.28
154 | TACTTGATTA | 0.985
155 | AAGAGATTGT | 0.976
156 | GATTAAGTTA | 0.992
157 | CGGGTCTTGA | 0.976
